US20150376286A1 (Amgen, published 2015)
Changes are numbered by the printed parent chain.

T1: cynomolgus CGRP receptor (cynoCRLR + cynoRAMP1) (cynomolgus monkey)
T1 chain 1: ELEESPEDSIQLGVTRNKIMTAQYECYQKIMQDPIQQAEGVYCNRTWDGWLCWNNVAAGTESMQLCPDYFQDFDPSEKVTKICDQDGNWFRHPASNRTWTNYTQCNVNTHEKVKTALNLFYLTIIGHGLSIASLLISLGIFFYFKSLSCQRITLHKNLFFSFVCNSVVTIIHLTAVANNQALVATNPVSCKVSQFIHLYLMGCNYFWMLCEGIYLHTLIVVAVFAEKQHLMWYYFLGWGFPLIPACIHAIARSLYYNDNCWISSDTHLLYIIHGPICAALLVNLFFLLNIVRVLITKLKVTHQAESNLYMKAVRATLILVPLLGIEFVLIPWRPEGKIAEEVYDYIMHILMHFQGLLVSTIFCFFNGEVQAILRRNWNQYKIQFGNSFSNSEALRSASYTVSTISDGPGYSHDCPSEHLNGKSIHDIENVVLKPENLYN
T1 chain 2: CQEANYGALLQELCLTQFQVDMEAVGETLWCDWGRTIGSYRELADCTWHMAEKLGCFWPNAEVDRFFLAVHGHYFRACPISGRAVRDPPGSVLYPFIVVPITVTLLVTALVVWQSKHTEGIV

T2: soluble CGRP receptor-muFc fusion protein (human)
T2 construct: also called CGRP R-muFc; not shown: mouse Fc
T2 chain 1: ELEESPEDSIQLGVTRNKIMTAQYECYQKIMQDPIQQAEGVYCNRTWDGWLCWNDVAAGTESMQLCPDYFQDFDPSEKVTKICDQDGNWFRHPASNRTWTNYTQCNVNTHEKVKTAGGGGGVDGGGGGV
T2 chain 2: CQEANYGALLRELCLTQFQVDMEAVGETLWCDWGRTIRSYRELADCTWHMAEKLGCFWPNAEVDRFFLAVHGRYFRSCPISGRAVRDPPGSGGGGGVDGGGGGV

B1: 1H7 (antibody, human IgG2, lambda, V domains shown)
VH: [about 100 residues not spelt out]DRTGYSISWSSYYYYYGMDVWGQGTTVTVSS
VL: QSVLTQPPSASGTPGQRVTISCSGSSSNIGSNYVYWYQQLPGAAPKLLIFRSNQRPSGVPDRFSGSKSGTSASLAISGLRSEDEADYYCAAWDDSLSGWVFGGGTKLTVLG
B2: 9F5 (antibody, human IgG2, lambda, V domains shown)
VH: [about 100 residues not spelt out]DRTGYSISWSSYYYYYGMDVWGQGTTVTVSS
VL: B1 VL with P7S, F50L, S52N, A75T
notes: also called 09F5; 09F5.2

How the values were obtained:
[1] = biological target: rat CGRP receptor (rat, UniProt Q63118 24-464; Q9JJ74 27-148); experiment: cell-based or functional assay
[2] = biological target: human amylin AMY1 receptor (hCTR + hRAMP1) (human, UniProt P30988 25-474); experiment: cell-based or functional assay
[3] = biological target: human adrenomedullin receptor 1 (hCRLR + hRAMP2) (human, UniProt O60895 43-175); experiment: cell-based or functional assay
[4] = biological target: T1, cynomolgus CGRP receptor (cynoCRLR + …); experiment: cell-based or functional assay
[5] = biological target: human adrenomedullin receptor 2 (hCRLR + hRAMP3) (human, UniProt O60896 24-148); experiment: cell-based or functional assay
[6] = biological target: T2, soluble CGRP receptor-muFc fusion …; experiment: Western blot
Experimental: The sample containing βME was then boiled for 4 min. […] Gels were electroblotted onto 0.2 μm nitrocellulose filters (Invitrogen). The blots were washed with Tris-buffered saline+1% Tween 20 (TBST) and then blocked with TBST+5% powered dry milk for 30 min. The blots were cut into strips along the molecular weight marker lanes. […] Blots were incubated with the antibodies for one hour followed by 3×10 min washes with TBST+1% milk. The blots treated with the huCGRP R antibodies were then incubated with goat anti-mouse IgG-Fc-HRP (1:10,000 in TBST+1% milk) and the blots treated with anti-huRAMP1 (N-20 anti-RAMP1 goat polyclonal antibody, Santa Cruz Biotech, CA) were incubated with rabbit anti-goat IgG-Fc-HRP (1:10,000) for 20 min. Blots were washed 3×15 min with TBST. The huCGRP R and anti-huRAMP1 antibody blots were treated with Pierce Supersignal West Pico Detection reagent, and the anti-mouse and anti-human IgG-Fc-HRP blots were treated with Pierce standard Detection Reagent (1 min.). Blots were then exposed with Kodak Biomax MS X-ray film.

Chain of UniProt Q63118 (Q63118 24-464 limits assumed, chain 1 of 2): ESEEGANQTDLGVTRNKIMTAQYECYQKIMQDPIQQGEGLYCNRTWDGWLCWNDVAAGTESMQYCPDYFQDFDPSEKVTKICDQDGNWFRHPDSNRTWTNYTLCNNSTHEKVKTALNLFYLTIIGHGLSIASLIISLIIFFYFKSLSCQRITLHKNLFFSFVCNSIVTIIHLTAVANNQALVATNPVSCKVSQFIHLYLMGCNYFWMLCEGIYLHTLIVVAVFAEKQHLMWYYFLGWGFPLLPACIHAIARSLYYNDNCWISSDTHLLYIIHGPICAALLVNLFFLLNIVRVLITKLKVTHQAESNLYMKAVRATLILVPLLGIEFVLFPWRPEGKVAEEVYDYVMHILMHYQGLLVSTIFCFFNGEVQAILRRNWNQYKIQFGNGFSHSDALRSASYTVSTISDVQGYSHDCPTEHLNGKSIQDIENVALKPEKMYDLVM
Chain of UniProt Q63118 (Q9JJ74 27-148 limits assumed, chain 2 of 2, further chain): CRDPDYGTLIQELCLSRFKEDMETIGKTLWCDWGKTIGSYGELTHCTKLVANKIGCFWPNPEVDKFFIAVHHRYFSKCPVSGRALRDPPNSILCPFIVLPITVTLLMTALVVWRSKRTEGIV
Chain of UniProt P30988 (P30988 25-474): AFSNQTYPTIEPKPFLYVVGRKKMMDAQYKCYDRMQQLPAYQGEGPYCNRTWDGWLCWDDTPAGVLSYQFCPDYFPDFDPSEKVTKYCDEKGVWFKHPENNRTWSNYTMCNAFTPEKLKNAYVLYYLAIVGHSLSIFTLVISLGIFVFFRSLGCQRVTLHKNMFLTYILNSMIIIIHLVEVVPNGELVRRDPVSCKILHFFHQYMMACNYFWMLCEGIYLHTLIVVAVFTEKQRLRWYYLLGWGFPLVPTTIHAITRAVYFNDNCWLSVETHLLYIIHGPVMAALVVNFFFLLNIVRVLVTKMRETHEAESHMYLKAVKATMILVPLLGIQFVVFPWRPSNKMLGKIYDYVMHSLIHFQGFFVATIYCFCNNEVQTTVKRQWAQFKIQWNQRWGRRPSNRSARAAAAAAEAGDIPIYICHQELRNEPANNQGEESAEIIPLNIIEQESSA
Chain of UniProt O60895 (O60895 43-175): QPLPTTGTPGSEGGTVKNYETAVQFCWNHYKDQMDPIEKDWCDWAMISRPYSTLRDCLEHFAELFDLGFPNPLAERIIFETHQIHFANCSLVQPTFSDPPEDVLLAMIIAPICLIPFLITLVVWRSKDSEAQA
Chain of UniProt O60896 (O60896 24-148): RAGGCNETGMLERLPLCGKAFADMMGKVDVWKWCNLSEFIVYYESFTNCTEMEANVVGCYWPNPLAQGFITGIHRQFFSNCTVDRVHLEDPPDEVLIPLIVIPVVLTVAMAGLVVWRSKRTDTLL

Binder	cAMP assay IC50 [1]	cAMP assay IC50 [2]	cAMP assay IC50 [3]	cAMP assay IC50 [4]	cAMP assay IC50 [5]	binding result [6]
B1	> 1000 nM	> 1000 nM	> 1000 nM	4.74 nM	> 1000 nM	–
B2	> 1000 nM	> 1000 nM	> 1000 nM	4.44 nM	> 1000 nM	binds
